Measured values reported in patent publication US11999737B2, “Kinase inhibitors and related methods of use” (Duke University, priority 2014, dated 2024).

Tests used:
intact RTA strips = test: KCl and Ang II-dependent contraction of isolated RTA; parameters: species or system rat; settings: HS-38 50 μM, n=1
Experimental: (§1) A, intact RTA strips were stimulated to contract with exposure to high-extracellular K+ solution (KCl) or Ang II (10 μM) in normal HEPES extracellular solution. Experiments were also performed with addition of the ZIPK inhibitor (HS-38, 50 μM). There are major differences in the sensitivity of RTA to contractile agonists. In this case, Ang II elicits a slower and weaker response than KCl. The addition of HS-38 decreased maximal force generated by either stimulus. […] Vessels were flash-frozen at the peak of contraction, and LC20 phosphorylation was assessed with PhosTag gels. […] C, data are n=1 for RTA vessels from Sprague-Dawley rats.
as §1, with “Intact” for “A, intact”, “gels (B).” for “gels.”, “Data” for “C, data”

[1] = tested on: rat ileal longitudinal smooth muscle; test: Calyculin A-induced contractile force of isolated rat ileal smooth muscle; settings: normalized to carbachol
Experimental: The data are isometric contractile responses of ileal longitudinal smooth muscle isolated from male Sprague-Dawley rats. Forces generated during calyculin A (10 μM) administration were measured, and data are expressed as the absolute force found for HS-38 treatments normalized to an initial contraction with carbachol (% CCh). HS-38 was provided 30 min prior to the addition of calyculin A.
The data are isometric contractile responses of ileal longitudinal smooth muscle isolated from male Sprague-Dawley rats. Forces generated during calyculin A (10 μM) administration were measured, and data are expressed as the absolute force found with HS-84 treatment normalized to an initial contraction with carbachol (% CCh). HS-38 was provided 30 min prior to the addition of calyculin A.
Small intestine (ileum) was removed from male Sprague-Dawley rats anesthetized and euthanized according to protocols approved by the University of Calgary Animal Care and Use Committee. Ileal smooth muscle sheets were dissected and cut into longitudinal smooth muscle strips (250 μm×2 mm). For force measurement muscle strips were tied with silk monofilaments to the tips of two fine wires. One wire was fixed, and the other was connected to a force transducer (SensoNor, AE801). The strip was mounted in a well on a stir plate to allow rapid solution exchange. […]

[2] = tested on: LC20, Par-4, MYPT1 phosphorylation; parameters: species or system rat
PIM1 = PIM1 (Homo sapiens, UniProt P11309); test: 33P-ATP filter-binding kinase assay; settings: mean ± S.D., n = 2
UniProt P11309, sequence (P11309 whole entry): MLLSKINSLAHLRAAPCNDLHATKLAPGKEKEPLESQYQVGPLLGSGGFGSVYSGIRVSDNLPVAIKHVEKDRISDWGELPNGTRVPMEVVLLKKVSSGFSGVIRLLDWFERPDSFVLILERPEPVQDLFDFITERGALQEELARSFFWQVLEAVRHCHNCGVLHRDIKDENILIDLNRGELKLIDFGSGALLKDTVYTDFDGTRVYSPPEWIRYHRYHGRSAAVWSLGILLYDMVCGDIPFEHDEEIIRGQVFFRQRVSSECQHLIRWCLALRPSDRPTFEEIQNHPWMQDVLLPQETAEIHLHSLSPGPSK

[3] = tested on: rabbit ileum smooth muscle

`CC(Sc1nc2c(cnn2-c2cccc(Cl)c2)c(=O)[nH]1)C(N)=O` (centres unmarked) [HS38] was tested, and the “Ang II-dependent contraction” value (intact RTA strips; Ang II 10 μM) was “completely inhibited”, the “KCl stimulated contraction, tonic versus phasic” value (intact RTA strips) was “greater effect on the sustained, tonic contraction” and the “maximal force generated by KCl or Ang II” value (intact RTA strips) was “decreased”. For the same molecule, the “contractile force development of isolated rat ileal smooth muscle” value [1] was “attenuated”, the “phosphorylation levels of LC20, Par-4 and MYPT1 (Thr-697, Thr-855)” value [2] was “unaltered” and the IC50 (PIM1) was 1700 ± 100 nM. For the same molecule, the “lag time to the onset of force” value ([3]; MC-LR 10 μM, p <0.05, n=3) was “increased” and the “kinetics of force development” value ([3]; pCa=9.0, MC-LR 10 μM, HS38 50 μM) was “markedly decreased”.
